Results: paper PMC4747173
These are yes or no findings as the source states them, for the method shown. Binding seen in cells or lysates may run through a third protein. Some entries that bind do so weakly or less than the wild type.

Chains of the proteins cited; added tags and fusions are not shown.
UniProt O14777: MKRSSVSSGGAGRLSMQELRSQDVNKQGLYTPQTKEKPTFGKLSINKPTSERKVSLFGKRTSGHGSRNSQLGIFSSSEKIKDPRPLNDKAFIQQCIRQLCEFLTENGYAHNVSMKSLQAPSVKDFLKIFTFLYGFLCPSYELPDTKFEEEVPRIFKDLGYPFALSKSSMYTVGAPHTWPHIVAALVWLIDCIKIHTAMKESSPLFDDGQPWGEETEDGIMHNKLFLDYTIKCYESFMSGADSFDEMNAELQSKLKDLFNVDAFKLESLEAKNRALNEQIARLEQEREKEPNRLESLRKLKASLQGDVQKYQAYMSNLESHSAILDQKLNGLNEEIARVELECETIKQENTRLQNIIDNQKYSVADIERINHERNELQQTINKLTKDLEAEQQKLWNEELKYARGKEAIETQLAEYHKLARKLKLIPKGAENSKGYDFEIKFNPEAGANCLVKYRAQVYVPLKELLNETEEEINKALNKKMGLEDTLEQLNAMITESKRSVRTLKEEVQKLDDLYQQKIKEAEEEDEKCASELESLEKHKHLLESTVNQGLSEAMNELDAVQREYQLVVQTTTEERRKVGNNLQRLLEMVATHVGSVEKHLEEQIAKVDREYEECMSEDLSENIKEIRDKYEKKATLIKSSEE
UniProt P62136: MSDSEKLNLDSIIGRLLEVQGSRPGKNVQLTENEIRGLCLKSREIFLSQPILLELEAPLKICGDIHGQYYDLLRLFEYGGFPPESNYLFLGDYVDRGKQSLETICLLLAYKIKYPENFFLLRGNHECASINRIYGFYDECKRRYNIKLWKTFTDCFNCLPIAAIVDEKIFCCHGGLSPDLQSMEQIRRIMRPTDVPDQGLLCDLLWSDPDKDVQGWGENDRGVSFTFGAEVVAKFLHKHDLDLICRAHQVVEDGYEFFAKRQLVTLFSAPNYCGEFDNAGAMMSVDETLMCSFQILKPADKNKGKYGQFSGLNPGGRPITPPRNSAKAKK

Target: Hec1 (construct co-transfected in 293T cells for Figure 5f) (UniProt O14777)
Assay: co-IP; 293T cells co-transfected with tagged constructs, lysates after 24 hr, immunoprecipitation with anti-Flag antibody, Western blot; for Hec1 and PP1α with or without co-expressed ASPP1/2 (WT or mRVXF)

## PP1α (construct co-transfected in 293T cells for Figure 5f) (from UniProt P62136 1-330) (enzyme)
  binding: binds
